Whole data set: some 33,000 sequences, median “E-score (-0.5 to 0.5)” near -0.054, cut for the highest 2% near 0.35. Some of the results follow.
Biological target: T1, Stb5 (UniProt P38699)
T1 sequence: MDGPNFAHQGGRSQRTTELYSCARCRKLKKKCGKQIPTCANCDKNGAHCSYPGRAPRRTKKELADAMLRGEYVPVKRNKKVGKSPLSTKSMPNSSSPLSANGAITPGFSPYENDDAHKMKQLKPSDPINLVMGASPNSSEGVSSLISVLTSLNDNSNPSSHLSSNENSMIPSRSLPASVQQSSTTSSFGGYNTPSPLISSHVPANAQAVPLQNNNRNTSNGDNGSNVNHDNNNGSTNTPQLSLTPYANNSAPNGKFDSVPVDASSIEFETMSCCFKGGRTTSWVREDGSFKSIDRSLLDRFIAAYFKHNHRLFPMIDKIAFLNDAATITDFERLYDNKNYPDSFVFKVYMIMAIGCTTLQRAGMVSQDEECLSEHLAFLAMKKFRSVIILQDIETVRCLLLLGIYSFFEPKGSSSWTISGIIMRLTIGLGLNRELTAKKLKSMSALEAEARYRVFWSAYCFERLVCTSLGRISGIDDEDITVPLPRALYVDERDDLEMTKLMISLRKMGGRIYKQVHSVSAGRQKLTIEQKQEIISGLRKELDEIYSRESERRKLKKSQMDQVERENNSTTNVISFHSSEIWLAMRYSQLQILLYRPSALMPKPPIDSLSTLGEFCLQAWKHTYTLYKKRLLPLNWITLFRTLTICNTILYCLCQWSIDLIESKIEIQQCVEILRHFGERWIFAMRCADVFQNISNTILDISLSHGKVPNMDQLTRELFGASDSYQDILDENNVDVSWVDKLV
Assay: PBM E-score (8-mer binding enrichment) (E-score (-0.5 to 0.5)); higher = stronger / more preferred TF binding; most listed sequences are background and not binding sites
Settings: protein concentration: 200 nM; construct: GST-full length
Experimental: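 Universal 'all 10-mer' protein binding microarrays (Agilent AMADID 015681) probed with GST-tagged S. cerevisiae TFs (full-length or DBD) made by in vitro transcription/translation (PURExpress), about 100-200 nM. Bound TF was detected with fluorescent anti-GST. Each ungapped 8-mer (which stands for itself and its reverse complement) is scored by the PBM enrichment score (E-score), a modified Wilcoxon-Mann-Whitney statistic from -0.5 to +0.5, computed with the Universal PBM Analysis Suite. Scale: above 0.35 generally sequence-specific binding.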

Point of comparison: CATATCGG, “PBM E-score” value 0.132. Against it:
- GAGGGCAA — lower, -0.148
- TACTGGCA — lower, -0.17
- AACCTACA — lower, -0.0764
- CACCTAGA — lower, -0.0146
- TACTCGGA — lower, 0.114
- AAGAGGAT — lower, -0.147
- ACAAGATC — lower, -0.0806
- CTATGCAG — lower, -0.237
- AAAATTGT — lower, -0.203
- GTATGTCA — lower, -0.0197
- GAGCAGCC — lower, -0.259
- AGCCGTAA — lower, 0.115
- CCTGCTAA — lower, -0.18
- GCGCACCA — lower, -0.00566
- TCTAAACA — lower, -0.0965
- ATTCATCA — lower, -0.0353
- ACAGCCAG — lower, -0.16
- ACTCTTCC — lower, -0.151
- CGATGGAA — lower, -0.0192
- AACACTGG — lower, -0.224
- ACGCGGCC — lower, 0.105
- CGGAAGGC — lower, 0.12
- ATAAGAGC — lower, 0.128
- GAAGACCA — lower, -0.0322
- GAGTAGAA — lower, -0.161
- AGGTAGTA — lower, 0.0131
- ACGCAGCG — lower, -0.0092
- CAGCCCGA — lower, 0.124
- GACGTTTA — lower, -0.0411
- CTGTCTAC — lower, -0.162
- GAAAAATC — lower, -0.215
- AGGATGTA — lower, -0.0625
- ACTGGCCG — lower, -0.0443
- CGTAGAAC — lower, -0.0286
- ATAGAAGC — lower, -0.0497
- ACAATCTC — lower, 0.0173
- AACTCACC — lower, -0.00352
- TAAGCAAA — lower, -0.135
- CAGTACCG — higher, 0.303
- GTTTGAGA — lower, -0.24
- GCAACGGA — higher, 0.308
- CGCGATGC — lower, 0.0703
- AGGGTCCG — higher, 0.256
- ACAGGTGA — lower, -0.127
- AGTTCCCA — lower, -0.121
- CTTCTCCA — lower, -0.187
- CAAATATA — lower, -0.0723
- CAGGACGC — lower, -0.172
- TGTGTCAA — lower, -0.174
- CAGGGGGC — lower, -0.144
- AGCGGTAG — higher, 0.204
- GCCCGCGA — higher, 0.153
- AAAATCGG — higher, 0.265
- ACCTGTAT — lower, -0.153
- GTCCTGGA — lower, -0.2
- CCGCGTTC — higher, 0.193
- GACGATGA — higher, 0.139
- GCACCGAA — higher, 0.358
- AATTCGAG — lower, -0.148
- AGAAAAAA — lower, -0.113
- ATCCTTGG — lower, 0.0702
- CCATTTAA — lower, -0.073
- CACTCAGC — lower, -0.0979
- AACTCGTC — lower, -0.204
- ACTTCTCG — lower, -0.0927
- AAGACTGT — lower, -0.313
- AAGTTGAG — lower, -0.133
- GGATTCGA — lower, -0.0242
- CAGGTCGA — lower, -0.262
- ACGAAACC — higher, 0.133
- GTAAGACA — lower, -0.126
- TATTTAAA — lower, 0.116
- AGTTCCAA — lower, -0.0608
- AATTGCAC — lower, -0.0778
- CGTACTGC — lower, -0.141
- GGTATTAC — higher, 0.386
- GGGACCGA — higher, 0.257
- AAACAAGG — lower, -0.0496
- AATACCCA — lower, -0.00126
- ATCCATTC — lower, -0.118
- AAAGCGAA — lower, -0.0323
- CATTGGGG — lower, -0.203
- CAGGGTTC — lower, -0.205
- AGTCTAGG — lower, -0.127
- AGGGGCAA — lower, -0.088
- AAGTGATG — lower, -0.238
- AGTGTTGA — lower, -0.0698
- AGAGGAAG — lower, -0.285
- GGGCGCGA — lower, -0.0309
- CTCCAAGC — lower, -0.182
- CATACATG — lower, -0.0783
- ATGTTACG — lower, -0.0742
- ACTCGCAA — lower, -0.195
- CAGCCTCC — lower, -0.119
- CCCGCGGC — higher, 0.333
- AAATCACG — lower, -0.0679
- CCCTCAGC — lower, -0.183
- AGCCCCGG — higher, 0.404
- GGCCTCAA — lower, 0.0612
- CGTGAGAC — lower, 0.0335
- GATCAACA — lower, -0.214
- AAACCTGG — lower, -0.212
- CACGAGCA — lower, -0.277
- ATCCGCGC — higher, 0.248
- TCCGCAGA — higher, 0.166
- AATCTCGG — lower, 0.058
- AGTACCCA — lower, -0.101
- TCCTTAAA — lower, -0.274

Reference: the supplement of paper PMC3334620
